{"source": "PubChem BioAssay AID504832", "about": "(National Center for Advancing Translational Sciences (NCATS), 2011)", "note": "About 18,000 (5.8%) of roughly 310,000 compounds were called active. The shares of active, inactive and inconclusive entries below differ from those in the screen. Calls come from the whole dose curve; as a rule, active = well fitted inhibition curve with a large enough effect; inconclusive = small, poorly fitted or top-dose-only effect, or another doubt; inactive = no such curve, though single readings can be large or run the other way. No potency is given beside an inconclusive call; the fits are too rough. % is set by controls: 0 for no effect and ±100 for the full control effect; potency is the fitted concentration of half-maximal effect; tags give direction and shape of the fitted curve."}
{"assay": "Primary qHTS for delayed death inhibitors of the malarial parasite plastid, 48 hour incubation", "settings": "P. falciparum luciferase growth in erythrocytes; series mostly up to 28.7 µM; activity change, negative = inhibition: at the top concentration", "summary_of_the_method": "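In quantitative HTS format, infected erythrocytes bearing luciferase-reporter parasites were treated for a single generation at 37 C. Luminescence after adding detection reagent served as the growth measure.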"}
{"smiles": "CN(C)C(=O)c1cn(-c2ccccc2)nc1-c1cc2ccccc2o1", "Potency": "inconclusive [inhibitor, single point]"}
{"smiles": "CCCCOC(=O)c1ccc(NC(=S)N2CCN(c3ncc4c(=O)c(C(=O)O)cn(CC)c4n3)CC2)cc1", "Potency": "active: 2.62 µM"}
{"smiles": "COCCn1c(SCc2cccc(F)c2)nc2cc(C(=O)OC)ccc2c1=O", "Potency": "inconclusive [inhibitor, single point]"}
{"smiles": "CNC(=O)/C(C#N)=C/c1c(N(Cc2ccccc2)Cc2ccccc2)nc2ccccn2c1=O", "Potency": "inconclusive [inhibitor, single point]"}
{"smiles": "CCN(CC)S(=O)(=O)c1ccc(O)c(NS(=O)(=O)c2ccccc2F)c1", "activity change, negative = inhibition": "inactive: 16.3%"}
{"smiles": "CC1C(=O)NN=C1C(=O)N/N=C/c1cccs1", "note": "(stereo not given)", "activity change, negative = inhibition": "inactive: 86.8%"}
{"smiles": "C/C(=N\\NC(=O)c1ccccc1Cl)c1ccccn1", "Potency": "active: 1.65 µM"}
{"smiles": "O=c1c2ccccc2nc(-c2cccs2)n1-c1cccc2ccccc12", "Potency": "inconclusive [inhibitor, partial curve, poor fit]"}
{"smiles": "CCOC(=O)COc1ccc(/C=C/[N+](=O)[O-])c(OCC(=O)OCC)c1", "Potency": "inconclusive [inhibitor, partial curve, poor fit]"}
{"smiles": "CCC(C)(C)C1CCc2nc3ccccc3c(C(=O)OC(C)C(=O)Nc3c(C)n(C)n(-c4ccccc4)c3=O)c2C1", "note": "(stereo not given)", "Potency": "inconclusive [inhibitor, full curve, poor fit]"}
{"smiles": "Cc1ccc(-c2csc3nnc(SCC(=O)Nc4nsc(-c5ccccc5)n4)n23)cc1", "Potency": "inconclusive [inhibitor, single point]"}
{"smiles": "CC1=CC(=Nc2c(C)n(C)n(-c3ccccc3)c2=O)C=CC1=O", "Potency": "inconclusive [inhibitor, single point]"}
{"smiles": "CCCCN1CCNC[C@H]1Cc1ccc(O)cc1", "activity change, negative = inhibition": "inactive: 1.04%"}
{"smiles": "O=C(NC1CCCCC1)C1Cc2ccccc2CN1S(=O)(=O)c1ccc(F)cc1", "note": "(stereo not given)", "Potency": "inconclusive [inhibitor, partial curve, poor fit]"}
{"smiles": "COc1ccc(C(=O)Nc2ccc(CN3CCS(=O)(=O)CC3)cc2)cc1", "activity change, negative = inhibition": "inactive: -9.47%"}
{"smiles": "Cc1cccc(-n2c(C)c(C)c3c(N)ncnc32)c1", "Potency": "inconclusive [inhibitor, partial curve, poor fit]"}
{"smiles": "COc1ccc(/C=C/C(=O)c2ccoc2)cc1", "activity change, negative = inhibition": "inactive: 18.1%"}
{"smiles": "CC(C)C(=O)OC1CCS(=O)(=O)c2sccc21", "note": "(stereo not given)", "activity change, negative = inhibition": "inactive: -10.1%"}
{"smiles": "COc1ccc(/C=N/Nc2nc(-c3cccc(S(=O)(=O)N4CCCC4)c3)cs2)c(OC)c1", "Potency": "active: 13.1 µM"}
{"smiles": "CCOc1ccc(NC(=S)NC(C)c2cccs2)cc1", "note": "(stereo not given)", "activity change, negative = inhibition": "inactive: -12.8%"}
{"smiles": "CCOC(=O)c1cnc2c(c(C)nn2C)c1Oc1cc(Cl)cc(Cl)c1", "Potency": "inconclusive [inhibitor, single point]"}
{"smiles": "Cn1c(=O)[nH]c(=O)c2c1nc(Sc1nc3ccccc3s1)n2Cc1ccccc1", "Potency": "inconclusive [inhibitor, single point]"}
{"smiles": "CC(C)[C@H](NC(=O)N1CC(=O)Nc2ccccc21)C(=O)N[C@H](Cc1ccccc1)C(=O)O", "Potency": "inconclusive [inhibitor, full curve, poor fit]"}
{"smiles": "O=C(c1cc(-c2cccc(Cl)c2)nc2ccccc12)N1CCN(c2ccccn2)CC1", "Potency": "inconclusive [inhibitor, single point]"}
{"smiles": "CCOC(=O)c1[nH]nc(-c2cc(CC)c(O)cc2O)c1-c1cscn1", "Potency": "inconclusive [inhibitor, single point]"}
{"smiles": "CCCc1sc(N/N=C/c2ccccn2)nc1-c1ccc(F)cc1", "Potency": "active: 2.62 µM"}
{"smiles": "COc1nc(Nc2nc3ccccc3c(=O)[nH]2)nc2ccc(C)cc12", "Potency": "active: 2.62 µM"}
{"smiles": "CCCN1CCN(CCCNC(=O)c2cc3c(=O)[nH]c4ccc(C)cc4c3s2)CC1", "Potency": "inconclusive [inhibitor, partial curve, poor fit]"}
{"smiles": "O=C(NC(=S)Nc1ccc(CN2CCOCC2)cc1)c1ccc(-c2ccc(Cl)cc2)o1", "activity change, negative = inhibition": "inactive: 4.69%"}
{"smiles": "CCc1c(C)nc2ncnn2c1Nc1ccccc1C", "activity change, negative = inhibition": "inactive: -4.71%"}
{"smiles": "COc1cc(OC)cc(-c2c(C#Cc3ccsc3)c3cc(-c4ccc(C(N)=O)cc4)ccc3n2C)c1", "Potency": "active: 1.31 µM"}
{"smiles": "COc1ccc(CNC(=O)C(C)N(Cc2ccccc2OC)C(=O)c2snc(C(N)=O)c2N)cc1", "note": "(stereo not given)", "Potency": "inconclusive [inhibitor, single point]"}
{"smiles": "COc1cc(OC)cc(OCC(O)Cn2cnc(-c3ccccc3)c2)c1", "note": "(stereo not given)", "Potency": "active: 13.1 µM"}
{"smiles": "Cc1cccc(NC(=S)NC(=O)c2cccs2)n1", "activity change, negative = inhibition": "inactive: -3.9%"}
{"smiles": "CCNc1nc(CSc2ccccc2)nc2sc(C)c(C)c12", "Potency": "inconclusive [inhibitor, single point]"}
{"smiles": "CCOC(=O)C1C(=O)NC(c2ccccc2)=NC1c1cccc(Br)c1", "note": "(stereo not given)", "Potency": "inconclusive [inhibitor, single point]"}
{"smiles": "CC(C)C(=O)N1CCC(c2nc(-c3ccc(S(=O)(=O)N4CCCC4)cc3)no2)CC1", "activity change, negative = inhibition": "inactive: 0%"}
{"smiles": "Cc1ccc(C(=O)N2CCN(c3ccc([N+](=O)[O-])c(NCc4ccco4)c3)CC2)cc1", "Potency": "inconclusive [inhibitor, single point]"}
{"smiles": "COc1ccc(-c2ocnc2C(=O)Nc2ccccc2N2CCCCC2)cc1", "Potency": "inconclusive [inhibitor, single point]"}
{"smiles": "Cc1cccc(NC(=O)CCc2nc3sc4c(c3c(=O)[nH]2)CCCC4)n1", "Potency": "inconclusive [inhibitor, single point]"}
{"smiles": "O=c1c2ccccc2nc2sc(Nc3ccc(Br)cc3)nn12", "Potency": "inconclusive [activator, full curve, poor fit]"}
{"smiles": "C=CCn1c(SCC(=O)NCCOC)nnc1-c1cc2c(s1)CCC(CC)C2", "note": "(stereo not given)", "activity change, negative = inhibition": "inactive: -15.6%"}
{"smiles": "COC(=O)COc1cccc(/C=N/NC(=O)CCSc2ccccc2)c1", "Potency": "inconclusive [inhibitor, full curve]"}
{"smiles": "CSc1ccc(NC(=O)NCCCN2CCN(c3ccccc3F)CC2)cc1", "Potency": "inconclusive [inhibitor, single point]"}
{"smiles": "O=C(Nc1cnn(Cc2ccc(Cl)cc2)c1)c1cccs1", "Potency": "active: 4.65 µM"}
